From article PMC5700166
The list shows a part of the results, in another mix than the full data. The list includes weakly bound sequences.

Legend:
Assay in all cases: protein-binding microarray (PBM)
Details in all cases: PBM: ~300 nM protein, 6 mM HEPES pH 7.8, 80 mM KCl, 0.5 mM EDTA, 0.5 mM EGTA, 6% glycerol, 35 ng/ul poly-dIdC, 1% milk, 1 h, room temperature; Ap Aiptasia and Nv Nematostella (sea anemones) / Co Capsaspora / Aq Amphimedon (sponge) / Dm Drosophila / Hu human; RHD is the Rel homology domain; high values mean tight binding; most listed sequences are background and not binding sites; double strand, one strand shown
GST-Ap-NF-kB RHD = biological target: T1, GST-Ap-NF-kB RHD (UniProt A0A913YAJ5)
T1 sequence: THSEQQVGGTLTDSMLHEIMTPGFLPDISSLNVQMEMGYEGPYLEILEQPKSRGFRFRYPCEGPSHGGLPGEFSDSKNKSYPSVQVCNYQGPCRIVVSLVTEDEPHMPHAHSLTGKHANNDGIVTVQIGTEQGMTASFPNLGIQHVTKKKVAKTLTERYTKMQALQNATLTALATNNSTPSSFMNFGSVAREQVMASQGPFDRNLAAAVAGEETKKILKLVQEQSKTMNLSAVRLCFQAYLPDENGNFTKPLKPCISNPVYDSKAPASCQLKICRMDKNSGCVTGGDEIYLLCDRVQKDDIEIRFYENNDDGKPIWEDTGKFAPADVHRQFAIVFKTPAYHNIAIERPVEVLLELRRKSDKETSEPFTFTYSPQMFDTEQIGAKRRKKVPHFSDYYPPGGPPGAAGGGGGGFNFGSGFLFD

[1] = biological target: T2, GST-Nv-NF-kB (Cys allele) (UniProt E5G601)
T2 sequence: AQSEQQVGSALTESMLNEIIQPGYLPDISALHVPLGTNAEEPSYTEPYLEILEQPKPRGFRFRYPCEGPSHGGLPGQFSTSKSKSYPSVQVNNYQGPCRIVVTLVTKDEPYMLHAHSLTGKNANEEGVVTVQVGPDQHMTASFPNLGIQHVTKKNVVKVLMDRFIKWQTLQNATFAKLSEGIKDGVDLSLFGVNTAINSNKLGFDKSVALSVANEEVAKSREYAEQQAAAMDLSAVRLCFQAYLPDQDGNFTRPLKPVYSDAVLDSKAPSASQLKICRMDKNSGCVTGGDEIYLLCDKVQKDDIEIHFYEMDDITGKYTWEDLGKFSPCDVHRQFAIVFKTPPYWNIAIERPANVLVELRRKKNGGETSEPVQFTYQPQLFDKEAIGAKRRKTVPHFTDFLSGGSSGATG

GST-Co-NF-kB = biological target: T3, GST-Co-NF-kB (UniProt F1ARL5)
T3 sequence: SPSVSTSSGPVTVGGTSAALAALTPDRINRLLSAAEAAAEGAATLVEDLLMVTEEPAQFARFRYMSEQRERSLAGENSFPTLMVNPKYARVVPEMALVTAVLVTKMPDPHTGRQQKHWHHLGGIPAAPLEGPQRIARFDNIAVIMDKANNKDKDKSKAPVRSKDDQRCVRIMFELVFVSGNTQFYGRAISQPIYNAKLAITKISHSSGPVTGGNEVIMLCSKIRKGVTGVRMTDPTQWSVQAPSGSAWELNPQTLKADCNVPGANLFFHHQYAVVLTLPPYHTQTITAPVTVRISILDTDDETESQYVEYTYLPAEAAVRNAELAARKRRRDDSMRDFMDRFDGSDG

GST-Dm-Relish = biological target: T4, GST-Dm-Relish (UniProt Q94527)
T4 sequence: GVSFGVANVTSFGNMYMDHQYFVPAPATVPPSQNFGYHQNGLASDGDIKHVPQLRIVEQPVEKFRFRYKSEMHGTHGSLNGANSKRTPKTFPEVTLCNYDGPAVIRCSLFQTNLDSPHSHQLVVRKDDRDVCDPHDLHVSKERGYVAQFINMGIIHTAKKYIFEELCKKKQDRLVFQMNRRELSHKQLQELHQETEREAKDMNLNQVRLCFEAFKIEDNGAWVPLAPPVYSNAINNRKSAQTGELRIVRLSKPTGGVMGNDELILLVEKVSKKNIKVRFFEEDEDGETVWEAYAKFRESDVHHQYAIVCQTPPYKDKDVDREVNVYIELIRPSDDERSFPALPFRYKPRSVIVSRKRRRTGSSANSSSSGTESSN

GST-Aq-NF-kB = biological target: T5, GST-Aq-NF-kB (UniProt A9Y5G7)
T5 sequence: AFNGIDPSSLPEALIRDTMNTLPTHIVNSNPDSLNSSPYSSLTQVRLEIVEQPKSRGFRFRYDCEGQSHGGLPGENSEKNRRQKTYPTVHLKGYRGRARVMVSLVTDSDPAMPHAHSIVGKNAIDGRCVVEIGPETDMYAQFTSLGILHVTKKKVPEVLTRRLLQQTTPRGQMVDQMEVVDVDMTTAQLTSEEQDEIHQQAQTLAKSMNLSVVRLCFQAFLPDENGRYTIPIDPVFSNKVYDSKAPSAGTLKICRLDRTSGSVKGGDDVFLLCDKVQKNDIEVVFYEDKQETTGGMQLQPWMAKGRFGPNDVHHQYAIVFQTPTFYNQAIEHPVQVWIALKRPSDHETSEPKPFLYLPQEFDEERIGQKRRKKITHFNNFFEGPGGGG

Row | Sequence | binding signal (GST-Ap-NF-kB RHD) [z-score] | binding signal [1] [z-score] | binding signal (GST-Co-NF-kB) [z-score] | binding signal (GST-Dm-Relish) [z-score] | binding signal (GST-Aq-NF-kB) [z-score]
1 | CCGATTAACATCAAGAGAATTCCTGATGTTAATCGGGTCTTGATTCGCTTGACGCTGCTG | -0.425 | -0.164 | -0.61 | -0.0152 | 0.794
2 | CCGATTAACATCAAATTTCCTGATGATGTTAATCGGGTCTTGATTCGCTTGACGCTGCTG | 0.25 | -0.0581 | 0.567 | 0.0513 | 0.383
3 | CCGATTAACATCACAACGAGCCTTGATGTTAATCGGGTCTTGATTCGCTTGACGCTGCTG | -0.484 | -0.335 | -0.642 | -0.251 | -0.289
4 | CCGATTAACATCAGTGGTAAAACTGATGTTAATCGGGTCTTGATTCGCTTGACGCTGCTG | -0.652 | -0.296 | -0.707 | -0.0978 | -0.447
5 | CCGATTAACATCACACTGTTCAGTGATGTTAATCGGGTCTTGATTCGCTTGACGCTGCTG | 0.352 | 0.98 | -0.622 | 0.612 | 0.164
6 | CCGATTAACATCATGAGTTCCAATGATGTTAATCGGGTCTTGATTCGCTTGACGCTGCTG | -0.449 | -0.325 | -0.199 | -1.01 | -0.582
7 | CCGATTAACATCATATTGTGAGATGATGTTAATCGGGTCTTGATTCGCTTGACGCTGCTG | 0.365 | 0.0239 | -0.0999 | -0.603 | -0.132
8 | CCGATTAACATCAGGAGAATCCATGATGTTAATCGGGTCTTGATTCGCTTGACGCTGCTG | -0.585 | -0.554 | -0.445 | -0.144 | 0.209
9 | CCGATTAACATCAGGGCACTCCATGATGTTAATCGGGTCTTGATTCGCTTGACGCTGCTG | -0.0944 | -0.521 | -0.00903 | -0.197 | 0.122
10 | CCGATTAACATCACAAGCCGCCTTGATGTTAATCGGGTCTTGATTCGCTTGACGCTGCTG | 0.542 | -0.0381 | -0.562 | -0.486 | -0.439
11 | CCGATTAACATCAGGAGATTCACTGATGTTAATCGGGTCTTGATTCGCTTGACGCTGCTG | -0.00922 | -0.255 | -1.15 | 0.631 | 0.0741
12 | CCGATTAACATCAACAAAAAGCGTGATGTTAATCGGGTCTTGATTCGCTTGACGCTGCTG | -0.235 | -0.422 | 0.912 | -0.169 | -0.282
13 | CCGATTAACATCACTGCTTAAGATGATGTTAATCGGGTCTTGATTCGCTTGACGCTGCTG | -0.165 | -0.657 | 0.186 | -0.72 | -0.554
14 | CCGATTAACATCATTCGCATTTTTGATGTTAATCGGGTCTTGATTCGCTTGACGCTGCTG | -0.0705 | -0.415 | -0.183 | 0.446 | -0.299
15 | CCGATTAACATCAGAAAATCCGCTGATGTTAATCGGGTCTTGATTCGCTTGACGCTGCTG | -0.00769 | 0.298 | 0.411 | 0.495 | 0.591
16 | CCGATTAACATCATCCGCGAGCCTGATGTTAATCGGGTCTTGATTCGCTTGACGCTGCTG | -0.0778 | -0.145 | -0.68 | -0.792 | -0.425
17 | CCGATTAACATCATCCGTCCGCCTGATGTTAATCGGGTCTTGATTCGCTTGACGCTGCTG | 0.037 | -0.284 | -0.429 | -0.739 | -0.381
18 | CCGATTAACATCAACGAATTTCCTGATGTTAATCGGGTCTTGATTCGCTTGACGCTGCTG | 0.0746 | 0.328 | 0.444 | -0.00138 | 0.254
19 | CCGATTAACATCACATCCTTATTTGATGTTAATCGGGTCTTGATTCGCTTGACGCTGCTG | -0.69 | -1.26 | -0.0131 | -0.371 | -0.333
20 | CCGATTAACATCACTGGCTTGAATGATGTTAATCGGGTCTTGATTCGCTTGACGCTGCTG | -0.0857 | -0.91 | 0.0479 | -0.628 | -0.513
21 | CCGATTAACATCATTTCTGCTCGTGATGTTAATCGGGTCTTGATTCGCTTGACGCTGCTG | -0.603 | -0.684 | -0.0119 | 0.306 | -0.511
22 | CCGATTAACATCAGGAATTTGCATGATGTTAATCGGGTCTTGATTCGCTTGACGCTGCTG | -0.216 | 0.449 | 0.422 | 0.222 | 0.0109
23 | CCGATTAACATCACTAATGGATCTGATGTTAATCGGGTCTTGATTCGCTTGACGCTGCTG | -0.827 | -0.379 | -0.0448 | -0.394 | -0.599
24 | CCGATTAACATCAGCTTTCTGACTGATGTTAATCGGGTCTTGATTCGCTTGACGCTGCTG | -0.778 | 0.45 | -1.61 | -1.07 | -0.518
25 | CCGATTAACATCAGTGGATGCAATGATGTTAATCGGGTCTTGATTCGCTTGACGCTGCTG | -0.258 | -0.0198 | -0.22 | 0.0218 | -0.169
